Some of the results follow.
What was measured:
Assay in all cases: glycan array binding signal (z-score within array); higher = stronger binding
Details in all cases: glycan notation: IUPAC condensed, linker removed
Fuc(a1-2)Gal = target: Fuc(a1-2)Gal
Summary of the method: (§1)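 The Consortium for Functional Glycomics database supplied 3228 glycan arrays, of which those lacking an available protein sequence were dropped. The binding signal, a within-array Z-score, was averaged across arrays of the same protein sequence and across linkers. Negative scores can be read as non-binding.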

Fuc(a1-2)Gal(b1-3)GalNAc = target: Fuc(a1-2)Gal(b1-3)GalNAc
Summary of the method: as §1

[1] = target: Fuc(a1-2)Gal(b1-3)GalNAc(b1-3)Gal
Summary of the method: as §1

[2] = target: Fuc(a1-2)Gal(b1-3)GalNAc(b1-3)Gal(a1-4)Gal(b1-4)Glc
Summary of the method: as §1

[3] = target: Fuc(a1-2)Gal(b1-3)GalNAc(b1-4)[Neu5Ac(a2-3)]Gal(b1-4)Glc
Summary of the method: as §1

Fuc(a1-2)Gal(b1-3)GlcNAc = target: Fuc(a1-2)Gal(b1-3)GlcNAc
Summary of the method: as §1

[4] = target: Fuc(a1-2)Gal(b1-3)GlcNAc(b1-3)Gal(b1-4)Glc
Summary of the method: as §1

[5] = target: Fuc(a1-2)Gal(b1-3)[Fuc(a1-4)]GlcNAc
Summary of the method: as §1

Fuc(a1-2)Gal(b1-4)Glc = target: Fuc(a1-2)Gal(b1-4)Glc
Summary of the method: as §1

Fuc(a1-2)Gal(b1-4)GlcNAc = target: Fuc(a1-2)Gal(b1-4)GlcNAc
Summary of the method: as §1

[6] = target: Fuc(a1-2)Gal(b1-4)GlcNAc(b1-3)Gal(b1-4)GlcNAc
Summary of the method: as §1

[7] = target: Fuc(a1-2)Gal(b1-4)GlcNAc(b1-3)Gal(b1-4)GlcNAc(b1-3)Gal(b1-4)GlcNAc
Summary of the method: as §1

[8] = target: Fuc(a1-2)Gal(b1-4)[Fuc(a1-3)]GlcNAc
Summary of the method: as §1

[9] = target: Fuc(a1-2)Gal(b1-4)[Fuc(a1-3)]GlcNAc(b1-3)Gal(b1-4)[Fuc(a1-3)]GlcNAc
Summary of the method: as §1

[10] = target: Fuc(a1-2)Gal(b1-4)[Fuc(a1-3)]GlcNAc(b1-3)Gal(b1-4)[Fuc(a1-3)]GlcNAc(b1-3)Gal(b1-4)[Fuc(a1-3)]GlcNAc
Summary of the method: as §1

Fuc(a1-2)GlcNAc = target: Fuc(a1-2)GlcNAc
Summary of the method: as §1

Fuc(a1-2)[Gal(a1-3)]Gal = target: Fuc(a1-2)[Gal(a1-3)]Gal
Summary of the method: as §1

[11] = target: Fuc(a1-2)[Gal(a1-3)]Gal(b1-3)GlcNAc
Summary of the method: as §1

[12] = target: Fuc(a1-2)[Gal(a1-3)]Gal(b1-4)Glc
Summary of the method: as §1

[13] = target: Fuc(a1-2)[Gal(a1-3)]Gal(b1-4)GlcNAc
Summary of the method: as §1

[14] = target: Fuc(a1-2)[Gal(a1-3)]Gal(b1-4)[Fuc(a1-3)]GlcNAc
Summary of the method: as §1

[15] = target: Fuc(a1-2)[Gal(a1-4)]Gal(b1-4)GlcNAc
Summary of the method: as §1

[16] = target: Fuc(a1-2)[GalNAc(a1-3)]Gal
Summary of the method: as §1

[17] = target: Fuc(a1-2)[GalNAc(a1-3)]Gal(b1-3)GlcNAc
Summary of the method: as §1

[18] = target: Fuc(a1-2)[GalNAc(a1-3)]Gal(b1-4)Glc
Summary of the method: as §1

[19] = target: Fuc(a1-2)[GalNAc(a1-3)]Gal(b1-4)GlcNAc
Summary of the method: as §1

[20] = target: Fuc(a1-2)[GalNAc(a1-3)]Gal(b1-4)[Fuc(a1-3)]GlcNAc
Summary of the method: as §1

[21] = target: Fuc(a1-2)[GalNAc(a1-4)]Gal(b1-4)GlcNAc
Summary of the method: as §1

[22] = target: Fuc(a1-2)[GalNAc(b1-3)]Gal
Summary of the method: as §1

Fuc(a1-3)GlcNAc = target: Fuc(a1-3)GlcNAc
Summary of the method: as §1

[23] = target: Fuc(a1-3)[Gal(b1-4)]GlcNAc
Summary of the method: as §1

[24] = target: Fuc(a1-3)[Gal(b1-4)]GlcNAc(b1-4)Gal(b1-4)[Fuc(a1-3)]GlcNAc
Summary of the method: as §1

[25] = target: Fuc(a1-3)[Gal(b1-4)]GlcNAc(b1-4)Gal(b1-4)[Fuc(a1-3)]GlcNAc(b1-4)Gal(b1-4)[Fuc(a1-3)]GlcNAc
Summary of the method: as §1

[26] = target: Fuc(a1-3)[Gal3S(b1-4)]GlcNAc
Summary of the method: as §1

[27] = target: Fuc(a1-3)[GalNAc(b1-4)]GlcNAc
Summary of the method: as §1

Fuc(a1-4)GlcNAc = target: Fuc(a1-4)GlcNAc
Summary of the method: as §1

Fuc(b1-3)GlcNAc = target: Fuc(b1-3)GlcNAc
Summary of the method: as §1

Gal(a1-2)Gal = target: Gal(a1-2)Gal
Summary of the method: as §1

Gal(a1-3)Gal = target: Gal(a1-3)Gal
Summary of the method: as §1

Gal(a1-3)Gal(b1-3)GlcNAc = target: Gal(a1-3)Gal(b1-3)GlcNAc
Summary of the method: as §1

Gal(a1-3)Gal(b1-4)Glc = target: Gal(a1-3)Gal(b1-4)Glc
Summary of the method: as §1

Gal(a1-3)Gal(b1-4)GlcNAc = target: Gal(a1-3)Gal(b1-4)GlcNAc
Summary of the method: as §1

[28] = target: Gal(a1-3)Gal(b1-4)[Fuc(a1-3)]GlcNAc
Summary of the method: as §1

Gal(a1-3)GalNAc = target: Gal(a1-3)GalNAc
Summary of the method: as §1

[29] = target: Gal(a1-3)[Gal(a1-4)]Gal(b1-4)GlcNAc
Summary of the method: as §1

Gal(a1-4)Gal(b1-4)Glc = target: Gal(a1-4)Gal(b1-4)Glc
Summary of the method: as §1

Gal(a1-4)Gal(b1-4)GlcNAc = target: Gal(a1-4)Gal(b1-4)GlcNAc
Summary of the method: as §1

Gal(a1-4)GlcNAc = target: Gal(a1-4)GlcNAc
Summary of the method: as §1

Gal(a1-6)Glc = target: Gal(a1-6)Glc
Summary of the method: as §1

Gal(b1-2)Gal = target: Gal(b1-2)Gal
Summary of the method: as §1

Gal(b1-3)Gal = target: Gal(b1-3)Gal
Summary of the method: as §1

Gal(b1-3)GalNAc = target: Gal(b1-3)GalNAc
Summary of the method: as §1

[30] = target: Gal(b1-3)GalNAc(b1-3)Gal(a1-4)Gal(b1-4)Glc
Summary of the method: as §1

[31] = target: Gal(b1-3)GalNAc(b1-4)Gal(b1-4)Glc
Summary of the method: as §1

[32] = target: Gal(b1-3)GalNAc(b1-4)[Neu5Ac(a2-3)]Gal(b1-4)Glc
Summary of the method: as §1

Gal(b1-3)GlcNAc = target: Gal(b1-3)GlcNAc
Summary of the method: as §1

[33] = target: Gal(b1-3)GlcNAc(b1-3)Gal(b1-4)Glc
Summary of the method: as §1

[34] = target: Gal(b1-3)GlcNAc(b1-3)Gal(b1-4)GlcNAc
Summary of the method: as §1

[35] = target: Gal(b1-3)[Fuc(a1-4)]GlcNAc
Summary of the method: as §1

[36] = target: Gal(b1-3)[Fuc(a1-4)]GlcNAc(b1-3)Gal(b1-4)GlcNAc
Summary of the method: as §1

B1: Siglec-H (Mus musculus), Q4QQK7 (protein)
chain: MLLSRLLPLLWVLKWASGNCFILPREVIGTYPSLTLELQSVTVQEGLCVLVPCHLIEYPMNRWSDAAFGYWFHEGENTHPDSLVATNKPYQLVQKEMQSRFHFSGDCSLDIRDAQKGDNGSYFFRLEKGGKTWNFCEERISVHVTDLTHSPNISIPQTLELGRPTNVMCSVPWACERGTPPIFSWMSAALISLGPTTTLSSVLTLTPRLQDHGTNLTCQVTFPGAGVTVQKTIQLNVTYNSQNSTAHVSGRVGPGKPRPLADVVQVAMGEAAIKFLLLGICFFFLSKRSHTKRVERPATHMDQAHAVMD
glycan array binding signal (z-score) (Fuc(a1-2)Gal): -0.112 | glycan array binding signal (z-score) (Fuc(a1-2)Gal(b1-3)GalNAc): 0.608 | glycan array binding signal (z-score) [1]: 2.48 | glycan array binding signal (z-score) [2]: -0.283 | glycan array binding signal (z-score) [3]: -0.299 | glycan array binding signal (z-score) (Fuc(a1-2)Gal(b1-3)GlcNAc): -0.373 | glycan array binding signal (z-score) [4]: 2.46 | glycan array binding signal (z-score) [5]: -0.198 | glycan array binding signal (z-score) (Fuc(a1-2)Gal(b1-4)Glc): -0.346 | glycan array binding signal (z-score) (Fuc(a1-2)Gal(b1-4)GlcNAc): -0.298 | glycan array binding signal (z-score) [6]: -0.248 | glycan array binding signal (z-score) [7]: -0.324 | glycan array binding signal (z-score) [8]: -0.312 | glycan array binding signal (z-score) [9]: -0.254 | glycan array binding signal (z-score) [10]: 1.73 | glycan array binding signal (z-score) (Fuc(a1-2)GlcNAc): -0.327 | glycan array binding signal (z-score) (Fuc(a1-2)[Gal(a1-3)]Gal): -0.36 | glycan array binding signal (z-score) [11]: -0.239 | glycan array binding signal (z-score) [12]: -0.284 | glycan array binding signal (z-score) [13]: -0.354 | glycan array binding signal (z-score) [14]: -0.398 | glycan array binding signal (z-score) [15]: -0.324 | glycan array binding signal (z-score) [16]: -0.334 | glycan array binding signal (z-score) [17]: -0.271 | glycan array binding signal (z-score) [18]: -0.106 | glycan array binding signal (z-score) [19]: -0.206 | glycan array binding signal (z-score) [20]: -0.235 | glycan array binding signal (z-score) [21]: -0.311 | glycan array binding signal (z-score) [22]: -0.336 | glycan array binding signal (z-score) (Fuc(a1-3)GlcNAc): -0.312 | glycan array binding signal (z-score) [23]: -0.211 | glycan array binding signal (z-score) [24]: -0.277 | glycan array binding signal (z-score) [25]: -0.236 | glycan array binding signal (z-score) [26]: -0.318 | glycan array binding signal (z-score) [27]: -0.322 | glycan array binding signal (z-score) (Fuc(a1-4)GlcNAc): -0.188 | glycan array binding signal (z-score) (Fuc(b1-3)GlcNAc): 0.809 | glycan array binding signal (z-score) (Gal(a1-2)Gal): -0.199 | glycan array binding signal (z-score) (Gal(a1-3)Gal): -0.35 | glycan array binding signal (z-score) (Gal(a1-3)Gal(b1-3)GlcNAc): -0.306 | glycan array binding signal (z-score) (Gal(a1-3)Gal(b1-4)Glc): -0.291 | glycan array binding signal (z-score) (Gal(a1-3)Gal(b1-4)GlcNAc): -0.404 | glycan array binding signal (z-score) [28]: -0.289 | glycan array binding signal (z-score) (Gal(a1-3)GalNAc): -0.377 | glycan array binding signal (z-score) [29]: -0.314 | glycan array binding signal (z-score) (Gal(a1-4)Gal(b1-4)Glc): 0.035 | glycan array binding signal (z-score) (Gal(a1-4)Gal(b1-4)GlcNAc): 0.261 | glycan array binding signal (z-score) (Gal(a1-4)GlcNAc): -0.368 | glycan array binding signal (z-score) (Gal(a1-6)Glc): -0.272 | glycan array binding signal (z-score) (Gal(b1-2)Gal): -0.36 | glycan array binding signal (z-score) (Gal(b1-3)Gal): -0.376 | glycan array binding signal (z-score) (Gal(b1-3)GalNAc): -0.203 | glycan array binding signal (z-score) [30]: -0.31 | glycan array binding signal (z-score) [31]: -0.227 | glycan array binding signal (z-score) [32]: -0.279 | glycan array binding signal (z-score) (Gal(b1-3)GlcNAc): -0.179 | glycan array binding signal (z-score) [33]: -0.232 | glycan array binding signal (z-score) [34]: -0.28 | glycan array binding signal (z-score) [35]: 0.302 | glycan array binding signal (z-score) [36]: -0.342

— the supplement of paper PMC8728848
